Assay results published in US10299477B2 (priority 2015, dated 2019).

Test system: Phytophthora infestans
Type: in vivo
Conditions: for Test F (control value class, late blight on tomato): 250 ppm, sprayed 2.5 ml/pot before inoculation; for Test F (control value class): 250 ppm spray
[1] = evaluated 5-10 days after inoculation
[2] = Late blight on tomato, 2.5 ml/pot, evaluated 5-10 days after inoculation

SMILES	Test F (control value class, late blight on tomato) [1]	also measured
CCOc1cc(F)c(-c2c(-c3ccccc3Cl)cc(C)c(=O)n2CC)c(F)c1 [Compound 702]	L (L shows 50% or less of control values)	–
CCn1c(-c2c(F)cc(OC)cc2F)c(-c2cc(F)cc(F)c2)cc(Br)c1=O [Compound 799]	–	Test F (control value class) [2]: L (L shows 50% or less of control values)
CCOc1cc(F)c(-c2c(-c3cccc(OC)c3Cl)cc(C)c(=O)n2CC)c(F)c1 [Compound 645]	L (L shows 50% or less of control values)	–
COc1cc(F)c(-c2c(-c3cc(F)ccc3Cl)cc(Cl)c(=O)n2C)c(F)c1 [Compound 761]	–	Test F (control value class) [2]: L (L shows 50% or less of control values)
CCn1c(-c2c(F)cc(F)cc2F)c(-c2ccc(Br)cc2Cl)cc(Cl)c1=O [Compound 625]	L (L shows 50% or less of control values)	–
Cn1c(-c2c(F)cc(F)cc2F)c(-c2cc(F)c(F)cc2F)cc(Cl)c1=O [Compound 653]	L (L shows 50% or less of control values)	–
CCn1c(-c2c(F)cc(Br)cc2F)c(-c2cc(F)ccc2Cl)ccc1=O [Compound 692]	L (L shows 50% or less of control values)	–
CCOc1cc(F)c(-c2c(-c3cccc(F)c3F)cc(C)c(=O)n2CC)c(F)c1 [Compound 611]	L (L shows 50% or less of control values)	–
CCn1c(-c2c(F)cc(OC)cc2F)c(-c2cccc(F)c2Cl)cc(Br)c1=O [Compound 656]	L (L shows 50% or less of control values)	–
CCN1C(=O)CCC(c2cc(OC)cc(F)c2Cl)=C1c1c(F)cc(F)cc1F [Compound 614]	L (L shows 50% or less of control values)	–
COc1ccc(-c2ccc(=O)n(C)c2-c2c(F)cc(F)cc2F)c(Cl)c1 [Compound 756]	–	Test F (control value class) [2]: L (L shows 50% or less of control values)
CCn1c(-c2c(F)cc(Cl)cc2F)c(-c2cc(F)ccc2Cl)cc(Br)c1=O [Compound 603]	L (L shows 50% or less of control values)	–
CCn1c(-c2c(F)cc(OC)cc2F)c(-c2cc(F)cc(F)c2Cl)cc(Br)c1=O [Compound 695]	L (L shows 50% or less of control values)	–
CCn1c(-c2c(F)cc(OC)cc2F)c(-c2cc(OC)cc(F)c2Cl)ccc1=O [Compound 623]	L (L shows 50% or less of control values)	–
COc1cccc(-c2cc(Br)c(=O)n(C)c2-c2c(F)cc(F)cc2F)c1Cl [Compound 662]	L (L shows 50% or less of control values)	–
COc1cccc(-c2cc(Cl)c(=O)n(C)c2-c2c(F)cc(F)cc2F)c1Cl [Compound 787]	–	Test F (control value class) [2]: L (L shows 50% or less of control values)
CCn1c(-c2c(F)cc(OC)cc2F)c(-c2cc(F)cc(F)c2)cc(Cl)c1=O [Compound 798]	–	Test F (control value class) [2]: L (L shows 50% or less of control values)
CCn1c(-c2c(F)cc(F)cc2F)c(-c2cc(F)cc(F)c2Cl)cc(C)c1=O [Compound 689]	L (L shows 50% or less of control values)	–
COc1cc(F)c(-c2c(-c3cc(OC)ccc3Cl)cc(C)c(=O)n2C)c(F)c1 [Compound 724]	L (L shows 50% or less of control values)	–
COc1cc(F)c(-c2c(-c3ccccc3)cc(Br)c(=O)n2C)c(F)c1 [Compound 782]	–	Test F (control value class) [2]: L (L shows 50% or less of control values)
CCn1c(-c2c(F)cc(Cl)cc2F)c(-c2cc(F)ccc2Cl)ccc1=O [Compound 601]	L (L shows 50% or less of control values)	–
CCn1c(-c2c(F)cc(F)cc2F)c(-c2ccccc2)cc(Br)c1=O [Compound 774]	–	Test F (control value class) [2]: L (L shows 50% or less of control values)
CCOc1cc(F)c(-c2c(-c3cccc(F)c3Cl)cc(Br)c(=O)n2CC)c(F)c1 [Compound 659]	L (L shows 50% or less of control values)	–
COc1ccc(Cl)c(-c2ccc(=O)n(C#N)c2-c2c(F)cccc2F)c1 [Compound 719]	L (L shows 50% or less of control values)	–
COc1cc(F)c(-c2c(-c3cc(F)ccc3Cl)ccc(=O)n2C)c(F)c1 [Compound 760]	–	Test F (control value class) [2]: L (L shows 50% or less of control values)
COc1cc(F)c(-c2c(-c3cc(OC)ccc3Cl)ccc(=O)n2C)c(F)c1 [Compound 721]	L (L shows 50% or less of control values)	–
CCn1c(-c2c(F)cccc2F)c(-c2ccc(F)cc2F)cc(Cl)c1=O [Compound 630]	L (L shows 50% or less of control values)	–
CCn1c(-c2c(F)cc(OC)cc2F)c(-c2cc(OC)cc(OC)c2Cl)ccc1=O [Compound 716]	L (L shows 50% or less of control values)	–

SMILES	Test F (control value class, late blight on tomato) [1]	also measured
Cn1c(-c2c(F)cc(F)cc2F)c(-c2cc(F)ccc2Cl)cc(Br)c1=O [Compound 757]	–	Test F (control value class) [2]: L (L shows 50% or less of control values)
CCn1c(-c2c(F)cc(OC)cc2F)c(-c2cc(F)c(F)cc2F)ccc1=O [Compound 638]	L (L shows 50% or less of control values)	–
CCn1c(-c2c(F)cc(OC)cc2F)c(-c2cc(OC)ccc2Cl)cc(Cl)c1=O [Compound 772]	–	Test F (control value class) [2]: H (H shows more than 50% of control values)
CCOc1cc(F)c(-c2c(-c3cccc(F)c3Cl)ccc(=O)n2CC)c(F)c1 [Compound 657]	L (L shows 50% or less of control values)	–
CCn1c(-c2c(F)cc(OC)cc2F)c(-c2cc(OC)ccc2Cl)ccc1=O [Compound 770]	–	Test F (control value class) [2]: L (L shows 50% or less of control values)
CCN1C(=O)CCC(c2ccccc2Br)=C1c1c(F)cc(F)cc1F [Compound 650]	L (L shows 50% or less of control values)	–
Cn1c(-c2c(F)cccc2F)c(-c2ccc(F)cc2F)ccc1=O [Compound 631]	L (L shows 50% or less of control values)	–
Cn1c(-c2c(F)cc(Br)cc2F)c(-c2cc(F)ccc2Cl)cc(Cl)c1=O [Compound 681]	L (L shows 50% or less of control values)	–
COc1cccc(-c2ccc(=O)n(C)c2-c2c(F)cccc2F)c1Cl [Compound 784]	–	Test F (control value class) [2]: L (L shows 50% or less of control values)
CCn1c(-c2c(F)cc(OC)cc2F)c(-c2cccc(F)c2F)cc(C)c1=O [Compound 610]	L (L shows 50% or less of control values)	–
CCN1C(=O)CCC(c2ccc(Br)cc2Cl)=C1c1c(F)cc(F)cc1F [Compound 622]	L (L shows 50% or less of control values)	–
COc1cc(F)c(-c2c(-c3cccc(OC)c3Cl)ccc(=O)n2C)c(F)c1 [Compound 663]	H (H shows more than 50% of control values)	–
CCn1c(-c2c(F)cc(F)cc2F)c(-c2cccc(OC)c2Cl)cc(Br)c1=O [Compound 620]	L (L shows 50% or less of control values)	–
COc1cccc(-c2ccc(=O)n(C)c2-c2c(F)cc(F)cc2F)c1Cl [Compound 661]	H (H shows more than 50% of control values)	–
CCn1c(-c2c(F)cc(OC)cc2F)c(-c2cccc(OC)c2Cl)cc(Br)c1=O [Compound 642]	H (H shows more than 50% of control values)	–
Cn1c(-c2c(F)cc(F)cc2F)c(-c2cc(F)c(F)cc2F)ccc1=O [Compound 639]	L (L shows 50% or less of control values)	–
CCCCN1C(=O)CCC(c2cc(OC)ccc2Cl)=C1c1c(F)cccc1F [Compound 390]	–	Test F (control value class) (late blight on tomato, Phytophthora infestans, 5-10 days after inoculation): L (L shows 50% or less of control values)
COc1cc(F)c(-c2c(-c3ccccc3)cc(Cl)c(=O)n2C)c(F)c1 [Compound 781]	–	Test F (control value class) [2]: L (L shows 50% or less of control values)
CCn1c(-c2c(F)cc(F)cc2F)c(-c2cccc(F)c2C)ccc1=O [Compound 674]	L (L shows 50% or less of control values)	–
CCn1c(-c2c(F)cc(OC)cc2F)c(-c2ccccc2Br)cc(Cl)c1=O [Compound 668]	L (L shows 50% or less of control values)	–
O=c1ccc(-c2cc(F)cc(F)c2Cl)c(-c2c(F)cc(F)cc2F)n1CC(F)F [Compound 607]	L (L shows 50% or less of control values)	–
COc1ccc(Cl)c(C2=C(c3c(F)cccc3F)N(C#N)C(=O)CC2)c1 [Compound 704]	H (H shows more than 50% of control values)	–
Cn1c(-c2c(F)cc(F)cc2F)c(-c2ccccc2)ccc1=O [Compound 777]	–	Test F (control value class) [2]: L (L shows 50% or less of control values)
CCn1c(-c2c(F)cc(Cl)cc2F)c(-c2cc(F)ccc2Cl)cc(Cl)c1=O [Compound 602]	L (L shows 50% or less of control values)	–
O=c1c(Cl)cc(-c2cc(F)cc(F)c2Cl)c(-c2c(F)cc(F)cc2F)n1CC(F)F [Compound 608]	L (L shows 50% or less of control values)	–
COc1cc(F)c(-c2c(-c3ccc(F)cc3Cl)cc(C)c(=O)n2C)c(F)c1 [Compound 621]	L (L shows 50% or less of control values)	–
CCn1c(-c2c(F)cc(F)cc2F)c(-c2cc(OC)ccc2Cl)cc(Br)c1=O [Compound 768]	–	Test F (control value class) [2]: L (L shows 50% or less of control values)

Read-outs that look alike come from different tables or passages of the source.
